Results reported in patent publication US20250281631A1, “ANTIBODY-DRUG CONJUGATES AND PREPARATION METHODS AND USE THEREOF” (SICHUAN KELUN-BIOTECH BIOPHARMACEUTICAL CO., LTD, priority 2022, published 2025).

B1: 22B6: fully human anti-HER3 antibody; heavy chain SEQ ID NO: 17, light chain SEQ ID NO: 18 (antibody)
heavy: EVHLVESGGGVVQPGRSLRLSCATSGFTFRSYGMHWVRQAPGKGLEWVAVIWYDGSNKYYADSVKGRFTISRDISKNTLYLQMNSLTAEDTAVYYCARYYYDSNGYYDAFDIWGQGTMVTVSSASTKGPSVFPLAPSSKSTSGGTAALGCLVKDYFPEPVTVSWNSGALTSGVHTFPAVLQSSGLYSLSSVVTVPSSSLGTQTYICNVNHKPSNTKVDKRV[in this place human IgG1 Fc]
light: DIQLTQSPSFLSASVGDRVTITCRASQGISNYLAWYQQKPGKAPKLLIFAASTLQSGVPSRFSGSGSGAEFTLTISSLEPEDFATYYCQQLNSYPITFGQGTRLEIKRTVAAPSVFIFPPSDEQLKSGTASVVCLLNNFYPREAKVQWKVDNALQSGNSQESVTEQDSKDSTYSLSSTLTLSKADYEKHKVYACEVTHQGLSSPVTKSFNRGEC
modifications: heavy chain of 22B6D2-hIgG1; light chain of 22B6D2-hIgG1
B2: 22B6-B-01: ADC of antibody 22B6D2-hIgG1 conjugated to drug-linker B-01, DAR 8.07 (conjugate)
heavy: B1 heavy
light: B1 light
B3: 22B6-A-01: ADC of antibody 22B6D2-hIgG1 conjugated to drug-linker A-01, DAR 7.93 (conjugate)
heavy: B1 heavy
light: B1 light
B4: 22B6-B-04-2 (conjugate)
heavy: B1 heavy
light: B1 light

Columns and labels:
[1] = tested on: MDA-MB-453 cells; assay: Cell affinity of anti-human HER3 antibodies and ADCs by flow cytometry; format: binding
From the text: (§1) 1. Detection of Cell Affinity of Anti-Human HER3 Antibodies and their Drug Conjugates
(§2) The affinity of anti-human HER3 ADC to MDA-MB-453, NCI-H358, KPL-4, and A431 cells was detected by flow cytometry (Beckman, model Cytoflex).
(§3) Adherent MDA-MB-453, NCI-H358, KPL-4, A431 cells were digested with Tryple (manufacturer: Gibco) solution, counted, and an appropriate amount of the cells were taken, washed twice with 1×PBS, resuspended in 1% BSA in PBS solution, and then transferred to a 96-well sharp-bottom plate, 50 μl per well; candidate antibodies and drug conjugates thereof were diluted with 1% BSA in PBS solution by 3-fold or 2.5-fold serial dilution starting from 5 μg/mL, and then 50 μl of the diluted antibody or antibody-drug conjugate was added to the sharp-bottom plate containing the cells, and incubation was carried out at 4° C. for 40 minutes; the cells were washed twice with PBS, then added with 50 μl of diluted secondary antibody to each well, mixed, and incubated at 4° C. for 30 minutes; the cells were washed with PBS twice, then resuspended in 400 μl of PBS and detected by flow cytometry. Data processing: the average fluorescence signal values were exported, and then input into GraphPad Prism 6 software to calculate EC50. The results were shown in Table 32 and FIGS. 1A, 1B, 1C, and 1D. […] Moreover, when the naked antibody was formed into ADC through conjugation, the affinity to cells was less affected, and the affinity of 22B6 formed into ADC by conjugation was still the highest.

[2] = tested on: MDA-MB-453 cells; assay: Cell affinity of anti-human HER3 antibody and its drug conjugates by flow cytometry (second test, Table 37); format: binding
Protocol: 8. Detection of Cell Affinity of Anti-Human HER3 Antibody and its Drug Conjugates
The affinity of anti-human HER3 ADC to MDA-MB-453 cells was detected by flow cytometry (Beckman, model Cytoflex).
Adherent MDA-MB-453 cells were digested with Tryple (manufacturer: Gibco) solution, counted, and an appropriate amount of the cells were taken, washed twice with 1×PBS, resuspended in 1% BSA solution, and then transferred to a 96-well sharp-bottom plate, 50 μl per well; candidate antibodies and drug conjugates thereof were diluted with 1% BSA by 3-fold serial dilution starting from 15 μg/mL, and then 50 μl of the diluted antibody or antibody-drug conjugate was added to the sharp-bottom plate containing the cells, and incubation was carried out at 4° C. for 40 minutes; the cells were washed twice with PBS, then added with 50 μl of diluted secondary antibody to each well, mixed, and incubated at 4° C. for 30 minutes; the cells were washed with PBS twice, then resuspended in 200 μl of PBS and detected by flow cytometry. Data processing: the average fluorescence signal values were exported, and then input into GraphPad Prism 6 software to calculate EC50.

[3] = tested on: MDA-MB-453 cells; assay: Endocytosis effects of anti-human HER3 antibody and ADC (pHrodo, flow cytometry); format: cell-based; details: for EC50 endocytosis effects: MDA-MB-453 cells, pHrodo, 24 hours
Protocol: (§4) 9. Detection of Endocytosis Effects of Anti-Human HER3 Antibody Conjugates
The endocytosis effects of anti-human HER3 ADC in MDA-MB-453 cells were detected by flow cytometry (Beckman, model Cytoflex).
(§5) Adherent cells were digested with Trypsin-EDTA (0.25% Shanghai Basal Media Technologies) solution, counted, and adjusted the cell concentration to 1×10^5/ml with complete culture medium, then 100 μl of the cell suspension was added to the 96-well plate (the cell number is 1× 10^4/well), the 96-well plate was incubated in constant temperature CO2 incubator at 37° C. for 24 hours. Then took out the 96-well plate, discarded the medium, and added 50 μl of fresh complete culture medium to each well, the bi-specific antibody and control antibody were diluted with complete culture medium by serial dilution, the final concentrations were 0.55, 1.64, 4.94, 14.81, 44.44, 133.33, 400, 1200 ng/ml, 8 concentrations in total; PHrodo solution (Thermo) was diluted with complete culture medium to 12 μg/ml (the final concentration of PHrodo is 3 μg/ml); the serial diluted antibody candidates and diluted PHrodo solution were 1:1 mixed (30 μl 30 μl), incubated at room temperature in dark for 30 minutes; add 50 μl antibody candidate and PHrodo solution mixture to 96-well bplace, cultured at 37° C., 5% CO2 for 24 hours; took out the 96-well plate, discarded medium, washed once with sterile PBS, then cells were digested with 100 μl/well Trypsin-EDTA (0.25%), neutralized with 100 μl complete culture medium; then cells were separated by piping up and down and detected by flow cytometry. Data processing: the average fluorescence signal values were exported, and then input into GraphPad Prism 6 software to calculate EC50.

[4] = tested on: HCC1569 cells; assay: as above; format: cell-based; details: 24 hours
Protocol: as §4, §5

[5] = tested on: A431 cells; assay: Cell affinity of anti-human HER3 antibodies and ADCs by flow cytometry; format: binding; details: Table 32
From the text: as §1, §2, §3

[6] = tested on: KPL-4 cells; assay: as above; format: binding; details: Table 32
From the text: as §1, §2, §3

[7] = tested on: NCI-H358 cells; assay: as above; format: binding; details: Table 32
From the text: as §1, §2, §3

[8] = tested on: NCI-H358 non-small cell lung cancer xenograft model; assay: In vivo drug efficacy in NCI-H358 CDX model; design: species or system female BALB/c-nu mice; details: 1 mg/kg, 3 administrations, Day 32; for T/C / TGI / Tumor volume (x ± SEM): tail vein injection; for tumor growth inhibition rate (TGI): tail vein
Protocol: 5. Detection of In Vivo Drug Efficacy of Anti-Human HER3 Antibody-Drug Conjugates in H358 Model
NCI-H358 cells were cultured at 37° C., 5% CO2 in RPMI1640 medium containing 10% fetal bovine serum. The NCI-H358 cells in the exponential growth phase were collected, resuspended in PBS to an appropriate concentration, and inoculated subcutaneously in female BALB/c-nu mice to establish a non-small cell lung cancer model. When the average volume of the tumor was about 130 to 150 mm^3, the animals were randomly divided into 11 groups according to tumor size, including: vehicle control group (i.e., negative control group), hIgG1-A-01 1 mg/kg group, U1-59-A-01 1 mg/kg group, ADC 22B6-A-01 1 mg/kg group, hIgG1-B-01 1 mg/kg group, ADC 22B6-B-01 1 mg/kg group, hIgG1-A-07-A 1 mg/kg group, ADC 22B6-A-07-A-1 1 mg/kg and 3 mg/kg groups, hIgG1-B-03-1 1 mg/kg group, ADC 22B6-B-03-1 1 mg/kg group. All animals were administered via injection through tail vein on Day 0, Day 1, Day 4 and Day 10, 3 times in total. After administration, the tumor diameter was measured twice a week with a vernier caliper, and the tumor volume was calculated according to the following formula: V=0.5 a×b^2, wherein a and b represented the long and short diameters of the tumor, respectively, and the death of animals was observed and recorded every day.
The following formula was used to calculate the tumor growth inhibition rate TGI (%), which was used to evaluate the tumor inhibitory efficacy:
[formula] • wherein, • VTend represented a mean value of tumor volume at the end of the experiment in a treatment group • VTstart represented a mean value of tumor volume at the beginning of the administration in a treatment group • VCend represented a mean value of tumor volume at the end of the experiment in the negative control group • VCstart represented a mean value of tumor volume at the beginning of the administration in the negative control group

[9] = tested on: HEK293T-h HER3 cells; assay: In vitro cytotoxicity of anti-human HER3 ADCs (CCK8, 6 days); format: cell-based; details: result in words; Table 33, FIGS. 2A-2C
From the text: 2. In Vitro Cytotoxicity of Anti-Human HER3 Antibody-Drug Conjugates

[10] = tested on: MDA-MB-453 cells; assay: In vitro cytotoxicity of anti-human HER3 ADCs (second test, Table 39); format: cell-based
From the text: 10. In Vitro Cytotoxicity of Anti-Human HER3 Antibody-Drug Conjugates

Row | Molecule | EC50 cell affinity ([1]; MDA-MB-453 cells, flow cytometry, Table 32) [µg/mL] | affinity to cells ([1]; result in words, MDA-MB-453, NCI-H358, KPL-4, A431 cells, compared with U1-59 control) | EC50 cell affinity [2] [µg/mL] | EC50 endocytosis effects [3] [µg/mL] | endocytosis effects ([3]; result in words, MDA-MB-453 and HCC1569 cells (FIGS. 10 and 11)) | EC50 endocytosis effects [4] [µg/mL] | EC50 cell affinity [5] [µg/mL] | EC50 cell affinity [6] [µg/mL] | EC50 cell affinity [7] [µg/mL] | T/C [8] [%] | TGI [8] [%] | Tumor volume (x ± SEM) [8] [mm^3] | tumor growth inhibition rate (TGI) [8] [%] | target-specific killing effect [9] | IC50 ([10]; MDA-MB-453 cells, 6 days, CCK8, Table 39) [nM] | killing effects in MDA-MB-453 cells ([10]; result in words)
1 | B1 | 0.03919 | significantly higher than that of the naked control antibody U1-59 | 0.08539 | 0.00998 | better or not worse than the control antibody U1-59 and its conjugated ADC | 0.02877 |  |  |  |  |  |  |  |  |  | 
2 | B2 |  |  |  |  |  |  | 0.03278 | 0.0519 | 0.02979 | 52.02 | 64.68 | 271.94 ± 60.53 | 64.68 |  |  | 
3 | B3 |  |  |  |  |  |  | 0.03074 | 0.03868 | 0.04455 | 40.70 | 79.80 | 213.68 ± 24.79 | 79.80 | target-specific killing effect |  | 
4 | B4 |  |  | 0.1949 | 0.00776 |  | 0.02043 |  |  |  |  |  |  |  |  | 0.07 | significant killing effects
